The values below come from article PMC4336329 (PLoS ONE, 2015).

Out of some 310,000 compounds screened, about 14,000 (4.5%) showed an effect of 50% or more. The effect is printed as a negative number. The list shows a part of the results.
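Note: peak tail current of the secondary pulse compared with the same well before compound.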

This assay deals with human ether-à-go-go-related gene (hERG) potassium channel (human, UniProt Q12809). Description: primary screen, population patch clamp on CHO cells stably expressing hERG.
Sequence of human ether-à-go-go-related gene (hERG) potassium channel (Q12809 whole entry, looked up): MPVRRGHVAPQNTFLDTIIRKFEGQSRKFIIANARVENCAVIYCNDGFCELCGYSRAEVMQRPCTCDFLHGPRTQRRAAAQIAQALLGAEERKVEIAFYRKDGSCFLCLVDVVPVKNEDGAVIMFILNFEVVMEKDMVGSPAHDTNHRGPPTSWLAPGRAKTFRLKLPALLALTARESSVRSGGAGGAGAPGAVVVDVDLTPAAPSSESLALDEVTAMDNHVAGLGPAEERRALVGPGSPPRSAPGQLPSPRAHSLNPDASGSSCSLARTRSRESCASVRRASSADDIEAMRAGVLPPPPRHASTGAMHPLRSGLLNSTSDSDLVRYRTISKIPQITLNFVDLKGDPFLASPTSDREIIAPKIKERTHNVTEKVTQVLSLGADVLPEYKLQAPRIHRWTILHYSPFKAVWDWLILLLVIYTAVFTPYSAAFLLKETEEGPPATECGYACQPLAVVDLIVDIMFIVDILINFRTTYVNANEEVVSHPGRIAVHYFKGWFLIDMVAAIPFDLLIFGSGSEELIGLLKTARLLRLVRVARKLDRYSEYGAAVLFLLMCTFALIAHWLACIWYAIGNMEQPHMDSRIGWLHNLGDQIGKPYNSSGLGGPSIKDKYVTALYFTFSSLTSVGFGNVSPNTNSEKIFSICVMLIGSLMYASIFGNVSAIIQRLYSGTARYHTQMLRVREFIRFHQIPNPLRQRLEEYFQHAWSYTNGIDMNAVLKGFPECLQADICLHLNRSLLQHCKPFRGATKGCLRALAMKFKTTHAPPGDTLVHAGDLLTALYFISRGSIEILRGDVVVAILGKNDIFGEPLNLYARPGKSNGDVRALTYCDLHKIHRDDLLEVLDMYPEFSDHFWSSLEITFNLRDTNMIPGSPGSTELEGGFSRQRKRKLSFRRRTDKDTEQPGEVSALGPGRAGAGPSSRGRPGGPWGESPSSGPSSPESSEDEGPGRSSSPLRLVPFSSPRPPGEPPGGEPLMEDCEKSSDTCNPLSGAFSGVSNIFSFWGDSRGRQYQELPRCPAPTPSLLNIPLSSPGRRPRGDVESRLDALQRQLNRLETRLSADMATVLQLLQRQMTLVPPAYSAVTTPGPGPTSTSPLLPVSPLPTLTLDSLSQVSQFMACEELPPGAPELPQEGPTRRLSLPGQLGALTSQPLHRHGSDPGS
For the compound `CCc1ccc(NC(=O)Cn2nc(C)c([N+](=O)[O-])c2C)cc1`, the “hERG current change (%, negative = inhibition) at 10uM” value came out at 16%. To `CCOC(CNc1c([N+](=O)[O-])c(=O)n(C)c(=O)n1C)OCC` belongs 14.3%; to `O=C(NC1CCCCC1)c1ccc(S(=O)(=O)N2CCCCC2)cc1`, -6.43%. The value for `COc1ccccc1-c1nc(SCC(=O)Nc2cc(C)on2)c2c(=O)n(C)c(=O)n(C)c2n1` was -28.5%; that for `O=C1NC(=O)C2C1C(c1cccs1)NN2Cc1ccccc1` (centres unmarked) was 9.29%. To `CN(Cc1ccccc1)C(=O)c1nc2ccccn2c1CNCCOc1cccnc1` belongs -31%; to `O=C(Nc1cccnc1)C1OCCc2ccccc21` (centres unmarked), -1.77%; to `COc1ccccc1N=C1SC(C(=O)Nc2cccc(Cl)c2Cl)C(N)=C1C(N)=O` (centres unmarked), 17%. As for `CCOc1ccc2oc(C(=O)N3CC(C)OC(C)C3)c(C)c2c1` (centres unmarked), the “hERG current change (%, negative = inhibition) at 10uM” value is given as 6.38%. The value for `O=C(/C(=N\O)n1cncn1)c1ccc(Cl)cc1Cl` was 15.7%; that for `CC(=O)c1sc(NC(=O)COc2ccccc2)nc1C` was 3.6%; that for `COC(=O)c1sccc1NC(=O)Nc1ccc(C(C)=O)cc1` was 11.2%.

Regarding `Cc1nnc(N/N=C/c2ccccc2F)n1N`, the “hERG current change (%, negative = inhibition) at 10uM” value amounted to 14.5%.

As for `CCOc1ccc(CNn2cnnc2)cc1`, the “hERG current change (%, negative = inhibition) at 10uM” value came out at 2.33%. To `O=C(NC1CC1)C1=C[C@@H](C2CC2)C[C@@H](OCc2ccc(CO)cc2)O1` belongs 3.82%; to `C=CCn1c(SCC(=O)N2CCN(C(=O)c3ccco3)CC2)nc2sc(CC)cc2c1=O`, -76.3%; to `Cc1csc2nc(CNC(=O)C3CCCCC3)cn12`, 0.915%. To `COCCN1C(=O)C(O)=C(C(C)=O)C1c1ccc(OC)c(OC)c1` (centres unmarked) belongs 16.2%; to `CCOc1ccc(C(=O)Nc2ccc(-c3cc4ccccc4oc3=O)c(C)c2)cc1[N+](=O)[O-]`, 1.33%; to `Cc1ccc(C(=O)Nc2ccc(S(=O)(=O)NC3=NCCCCC3)cc2)cc1S(=O)(=O)N1CCOCC1`, 3.24%. To `N#CC1=C(N)n2c(s/c(=C\c3cccs3)c2=O)=C(C#N)C1c1cccs1` (centres unmarked) belongs -7.83%. In the case of `COC(=O)C1=C(C)OC(N)=C(C#N)C1c1c(C)nn(C)c1C` (centres unmarked), the “hERG current change (%, negative = inhibition) at 10uM” value was 6.51%.

On to `Cc1ccccc1NC(=O)CSc1nc2c(c(=O)n(C)c(=O)n2C)n1C`, for which the “hERG current change (%, negative = inhibition) at 10uM” value is -5.42%. The value for `Cc1ccc(NC(=O)CN(C)S(=O)(=O)c2ccc3[nH]c(=O)oc3c2)c(C)c1` was -4.26%; that for `Cc1cccc(C(=O)NNC(=O)c2ccc(O)cc2)c1` was -2.31%; that for `CN1c2ccsc2/C(=N/Nc2ccc(F)cc2)CS1(=O)=O` was 8.61%. To `Cc1cccc(OCC(=O)Nc2ccc(S(=O)(=O)Nc3cc(C)nc(C)n3)cc2)c1` belongs 19.8%; to `COc1ccc(-c2cc(C(=O)NCCCn3ccnc3)no2)cc1OC`, 3.22%; to `CCn1c(=O)c2c(nc3n2CCN3c2ccccc2)n(C)c1=O`, -2.56%. To `O=c1c2ccccc2c2ccccc2c(=O)n1-c1ccccc1` belongs 10.6%; to `COC(=O)c1ccccc1NC(=O)N1CCN(c2ccccc2)CC1`, -2.67%. On to `Cc1cccc(-c2oc3ccc(-c4ccc5c(c4)OCO5)cc3c2-c2ccc(OC3CCCCO3)cc2)c1` (centres unmarked), for which the “hERG current change (%, negative = inhibition) at 10uM” value came out at 20.2%.

As to `COc1ccc(NC(=O)Cc2c(Sc3ccccc3)c3ccccc3n2C)cc1`, the “hERG current change (%, negative = inhibition) at 10uM” value was found to be 22.6%. The value for `O=C(CSCc1cccc(CSCC(=O)Nc2ccccc2)n1)Nc1ccccc1` was -67%; that for `O=C(CCCN1CCC(O)(c2ccc(Br)cc2)CC1)c1ccc(F)cc1` was -79.7%; that for `O=C(Nc1nnc(-c2ccncc2)s1)C1CCCO1` (centres unmarked) was 21%.

As for `CCOc1cc(NC(=S)Nc2ccc(Cl)cc2)c(OCC)cc1NC(C)=O`, the “hERG current change (%, negative = inhibition) at 10uM” value came to 2.28%.

With `COc1ccccc1-c1nn(-c2ccccc2)cc1C(=O)N1CCc2ccccc2C1`, the “hERG current change (%, negative = inhibition) at 10uM” value was -4.47%.

As to `Nc1ccc2c(c1)C(=O)N(c1cccc3ccccc13)C2=O`, the “hERG current change (%, negative = inhibition) at 10uM” value is on record as -8.7%. The value for `CC(/C=N/NC(=O)c1cc(-c2ccccc2)nc2ccccc12)=C\c1ccco1` was 4.1%; that for `N#Cc1ccc(COC(=O)Cn2nnc(-c3ccccc3)n2)cc1` was 0.45%. The value for `O=C(CN1CCN(C(=O)c2ccccc2)CC1)Nc1ccc(Br)cn1` was -74.4%. To `CC(O)[C@@]1(O)CC[C@H]2[C@@H]3CC[C@H]4C[C@@H](O)CC[C@]4(C)C3=CC[C@@]21C` (some centres unmarked) belongs -15.1%; to `CCc1nnc(NC(=O)[C@@H](NC(=O)c2ccc(OC)cc2)C(C)C)s1`, 18.3%; to `Cc1cccc(C)c1NC(=O)c1cc(-c2ccccn2)nc2ccccc12`, 1%. As to `O=C(NNC(=O)c1ccc(F)c(S(=O)(=O)N2CCOCC2)c1)c1ccc(Br)cc1`, the “hERG current change (%, negative = inhibition) at 10uM” value is given as -31.2%.

For `CC1CCN(CC(O)COCCC23CC4CC(CC(C4)C2)C3)CC1.Cl` (centres unmarked), the “hERG current change (%, negative = inhibition) at 10uM” value was -51.5%. To `CC(=O)Nc1ccc(NC2CCCCC2NS(=O)(=O)c2ccc(Cl)cc2)cc1` (centres unmarked) belongs 10.9%; to `COc1ccc2cc(CCNC(=O)C3CCCC3)c(=O)[nH]c2c1`, 1.96%.

In the case of `COC(=O)/C(=N/Nc1cccc(C)c1)N1CCCc2ccccc21`, the “hERG current change (%, negative = inhibition) at 10uM” value was 5.91%. To `COC/C=C/C1=CC(=O)C[C@H](c2ccc3c(c2)OCO3)C1` belongs -8.31%. To `CSc1nc(-c2ccc(Cl)cc2)nn1C(=O)c1ccccc1` belongs -0.831%; to `O=C(CSc1nnc(-c2ccc(OC(F)F)cc2)o1)N1CCOCC1`, -57%. The value for `O=C(Oc1ccc2ccccc2c1)c1ccco1` was 5.27%; that for `Cc1nc2ccc(C(=O)N3CCCC(CO)(Cc4ccc(F)cc4F)C3)cc2nc1C` (centres unmarked) was -6.98%; that for `CCOC(=O)c1nn(-c2ccccc2)c(C#N)c1N` was -4.91%.
